Laboratory results as given in PubChem BioAssay AID588855 (National Center for Advancing Translational Sciences (NCATS), 2011).
The campaign covered roughly 410,000 compounds. About 5,000 (1.2%) were called active. Inconclusive means that the source gave no clear call. Such entries were picked first, then a sample of the others. The call rests on the fitted dose curve; in most records, active means well fitted inhibition curve with a large enough effect; inconclusive means small, poorly fitted or top-dose-only effect; inactive means no such curve, though single readings can be large or run the other way. A potency beside an inconclusive call is a rough fit, not a confirmed value.
Potency means the concentration at half of the fitted maximal effect; tags describe the fitted curve by direction and shape.

Assay: qHTS for Inhibitors of TGF-b; further: nearly all actives have a fitted effect of over 65% in size
Settings: HepG2 CAGA-GFP TGF-b/SMAD3 reporter, GFP fluorescence, 18 h, TGF-beta stimulated, 500 pg/mL final; series mostly up to 46.1 µM
In short: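 Inhibition was scored as loss of TGF-beta-induced (500 pg/mL final, 18 hours, 37 degrees C) GFP in HEPG2 cells carrying a CAGA-GFP reporter, in DMEM with 1% FBS. Well GFP was summed per cell; Activity was normalised to unstimulated and stimulated DMSO wells, then concentration-response fitting.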
In the case of `O=C(CN1CCCCC1)Nc1cccc(-n2cnnn2)c1`, the Potency is reported as inconclusive: 6.31 µM [inhibitor, single point].
With `O=C(c1cccs1)N1N=C(c2ccccc2)CC1c1ccccc1` (stereo not given) the Potency was inconclusive: 17.8 µM [inhibitor, single point].
For `O=C(Nc1ccc(Cl)cc1)c1cc(S(=O)(=O)N2CCc3ccccc32)ccc1F`, the Potency was inconclusive: 3.98 µM [inhibitor, full curve, poor fit].
In the case of `Cn1c(=O)c(C(=O)CN2CCN(Cc3ccc4c(c3)OCO4)CC2)c(N)n(Cc2ccccc2)c1=O`, the Potency is reported as inconclusive: 12.6 µM [inhibitor, single point].
In the case of `CCN(CC)c1ccc(/C=N/N=C(N)N)c(O)c1`, the Potency is reported as inconclusive: 12.6 µM [inhibitor, partial curve].
For `Cc1ccc(S(=O)(=O)Nc2nc3n(n2)C(c2ccccc2Cl)C=C(c2ccccc2)N3)cc1` (stereo not given), the Potency was inconclusive: 12.6 µM [inhibitor, single point].
With `COc1ccc(-c2nc(Cn3c(SCc4ccccc4F)nc4ccncc43)c(C)o2)cc1OC` the Potency was “inactive”.
With `O=C(Cc1ccc(OCCC2CCCCC2)cc1)NO` the Potency was “inactive”.
With `COc1ccc(NS(=O)(=O)c2ccc(Cl)c(NC(=O)c3cccnc3Cl)c2)cc1` the Potency was inconclusive: 17.8 µM [inhibitor, partial curve, poor fit].
In the case of `COc1ccc(-c2n[nH]c(=S)n2-c2ccc(Br)cc2)cc1OC`, the Potency is reported as “inactive”.
For `COc1ccc(N2CCCC2)c(NC(=O)c2ccc([N+](=O)[O-])o2)c1`, the Potency was active: 5.62 µM.
In the case of `CN(C)C(=O)CCc1ccc2c3c([nH]c2c1)[C@]1(C)[C@@H](C(=O)N2CCCCC2)C[C@H](CC(=O)NCc2cccc(C(F)(F)F)c2)C(=O)N1CC3`, the Potency is reported as inconclusive: 15.8 µM [inhibitor, single point].
For `CC(=O)Nc1cc(-c2ccccc2)nn1Cc1ccc(Cl)cc1`, the Potency was “inactive”.
In the case of `OCc1ccc(O)c2ncccc12`, the Potency is reported as active: 12.6 µM.
In the case of `Cc1ccc(-c2nc3ccc(Cl)cn3c2Cc2ccsc2)cc1`, the Potency is reported as inconclusive: 35.5 µM [inhibitor, single point].
With `CCOC(=O)NC(=S)Nc1ccc(C(C)(C)C)cc1` the Potency was “inactive”.
With `CCc1nn(C(C)C(=O)NC2CCCCCC2)c(=O)c2cc3occc3n12` (stereo not given) the Potency was “inactive”.
In the case of `CC(C)C[C@@H](CN)NC(=O)c1nc[nH]c1C(=O)N[C@@H](Cc1c[nH]c2ccccc12)C(=O)CNC[C@H](C)NC(=O)c1nc[nH]c1C(=O)N[C@@H](CC(=O)O)C(=O)O`, the Potency is reported as “inactive”.
In the case of `Cc1ccc2nc(-c3ccco3)c(CC(C)(C)C)n2c1`, the Potency is reported as inconclusive: 10 µM [inhibitor, partial curve, poor fit].
For `COc1cc(C2C3=C(COC3=O)OC(C)(C)Oc3cc4c(cc32)OCO4)cc(OC)c1OC` (stereo not given), the Potency was active: 2.82 µM.
With `Nc1nc(NC(=O)c2ccc(Cl)cc2)nn1-c1ccccc1` the Potency was “inactive”.
With `COc1ccccc1Cn1c(CCCO)nc2ccccc21` the Potency was inconclusive: 35.5 µM [inhibitor, single point].
In the case of `COc1ccc(S(=O)(=O)N2CCOC2CNC(=O)C(=O)NCCN2CCOCC2)cc1OC` (stereo not given), the Potency is reported as inconclusive: 6.31 µM [inhibitor, single point].
With `Cc1ccc(OCc2nnc(SCC(=O)N3C(C)CCCC3C)o2)cc1` (stereo not given) the Potency was “inactive”.
With `COc1ccccc1NS(=O)(=O)c1cc(C(=O)NCC(C)(C)N2CCOCC2)ccc1C` the Potency was “inactive”.
In the case of `CCOc1ccc(C(C)=O)cc1N1C(=O)C2C(C1=O)C1C=CC2C12CC2` (stereo not given), the Potency is reported as “inactive”.
For `Cc1ccc(/C=C2/SC(=S)N(CCCC(=O)Nc3ccc(O)cc3)C2=O)cc1`, the Potency was inconclusive: 35.5 µM [inhibitor, single point].
For `COc1ccc(CNC(=O)C2CCCN2)cc1OC` (stereo not given), the Potency was “inactive”.
With `COc1ccc(C)cc1NC(=O)CSc1ccc(-c2ccccn2)nn1` the Potency was inconclusive: 11.2 µM [inhibitor, partial curve].
For `O=C(OCc1nnc(-c2ccccc2)o1)c1ccc(S(=O)(=O)NCc2ccco2)cc1`, the Potency was “inactive”.
In the case of `Cc1ccc(S(=O)(=O)c2nc(S(C)(=O)=O)sc2NCc2ccccc2)cc1`, the Potency is reported as “inactive”.
For `CCN(CC)S(=O)(=O)c1ccc2c(c1)N(CC(=O)Nc1ccc(C)cc1C)C(=O)C1CCCN21` (stereo not given), the Potency was “inactive”.
For `COc1ccc2cc(-c3[nH]ncc3CN3CCCN(c4ccccc4)CC3)ccc2c1`, the Potency was inconclusive: 17.8 µM [inhibitor, single point].
For `COc1ccc(C2NC(=O)c3ccccc3O2)c(OC)c1OC` (stereo not given), the Potency was inconclusive: 35.5 µM [inhibitor, single point].
With `Cc1ccc(S(=O)(=O)NN2C(=O)/C(=C/c3cccc(F)c3)SC2=S)cc1` the Potency was inconclusive: 35.5 µM [inhibitor, single point].
For `CCOc1ccc(NC(=O)c2ccc(NC(=O)CSc3nc4ccccc4c(=O)[nH]3)cc2)cc1`, the Potency was “inactive”.
With `COC(=O)c1c(NC(=O)c2ccc(C)c(S(=O)(=O)Nc3ccccc3C)c2)sc2c1CCCC2` the Potency was inconclusive: 5.62 µM [inhibitor, single point].
For `Cc1ccc(/C=C/C(=O)Nc2sc3c(c2C#N)CCCC3)o1`, the Potency was inconclusive: 3.98 µM [inhibitor, single point].
In the case of `COc1ccc(N=C2S/C(=C\c3ccco3)C(=O)N2CC(C)C)cc1`, the Potency is reported as “inactive”.
In the case of `CN(C1=C(N2CCOCC2)C(=O)c2ccccc2C1=O)c1ccccc1`, the Potency is reported as active: 10 µM.
For `CC(C)=CCC/C(C)=C/COc1ccc2ccc(=O)oc2c1`, the Potency was inconclusive: 35.5 µM [inhibitor, single point].
In the case of `O=C(COC(=O)c1cccc(NC(=O)c2ccc(Br)cc2)c1)c1ccc(Br)cc1`, the Potency is reported as “inactive”.
For `Cc1[nH][nH]c(=O)c1C(c1c(C)[nH][nH]c1=O)c1cn(Cc2cccc3ccccc23)c2ccccc12`, the Potency was inconclusive: 35.5 µM [inhibitor, single point].
For `COc1cccc(C(=O)Nc2ccc3nc(N4CCC(C)CC4)cc(C)c3c2)c1`, the Potency was inconclusive: 12.6 µM [inhibitor, partial curve].
For `O=S(=O)(Nc1ccc(F)cc1Cl)c1ccc(-c2cnc(C3CC3)o2)cc1`, the Potency was active: 14.1 µM.
In the case of `CC(=O)c1ccc(NC(=O)C(C)OC(=O)c2ccc(NS(=O)(=O)c3ccc(F)c(F)c3)cc2)cc1` (stereo not given), the Potency is reported as inconclusive: 0.794 µM [inhibitor, full curve, poor fit].
With `COc1ccc(-n2nc([N+](=O)[O-])c(=NCCCN3CCCC3=O)n2O)cc1` the Potency was inconclusive: 11.2 µM [inhibitor, partial curve, poor fit].
For `CCCc1nc2ccc(Cl)cn2c1Cc1ccccc1OC`, the Potency was inconclusive: 14.1 µM [inhibitor, single point].
With `COc1ccc(-n2cccc2C=O)cc1` the Potency was “inactive”.
For `COc1ccc(-n2cc(-c3ccc(OC)c(OC)c3)[nH]c2=S)cc1`, the Potency was inconclusive: 12.6 µM [inhibitor, single point].
With `Cc1ccc(NS(=O)(=O)c2ccc(NS(=O)(=O)c3cccs3)cc2)cc1` the Potency was inconclusive: 1.41 µM [inhibitor, partial curve].
With `Cc1ccc(S(=O)(=O)C(C#N)c2nc3ccccc3nc2N2CCN(C)CC2)cc1` (stereo not given) the Potency was inconclusive: 11.2 µM [inhibitor, partial curve].
With `CC(C)CN(C(=O)COC(=O)c1ccccc1NCc1ccco1)c1c(N)n(Cc2ccccc2)c(=O)[nH]c1=O` the Potency was “inactive”.
With `CC1C(c2ccc3c(c2)OCO3)c2cc3c(cc2OC1N1CCOCC1)OCO3` (stereo not given) the Potency was inconclusive: 14.1 µM [inhibitor, partial curve, poor fit].
In the case of `Cc1cccc(N2CCN(CCCNC(=O)c3nnc(Cc4c(F)cccc4Cl)o3)CC2C)c1` (stereo not given), the Potency is reported as “inactive”.
In the case of `O=C(Cn1cnc2ccccc2c1=O)NC1CCCc2ccccc21` (stereo not given), the Potency is reported as inconclusive: 3.16 µM [inhibitor, partial curve, poor fit].
With `COc1ccc(C2=C(C)C(=O)N(Cc3ccc(C(=O)Nc4cc(C)ccc4C)cc3)S2(=O)=O)cc1` the Potency was “inactive”.
With `CCOC(=O)C1=CN(Cc2cccc(F)c2)S(=O)(=O)NC1c1ccc2ccccc2c1` (stereo not given) the Potency was active: 12.6 µM.
For `O=C(Cc1ccc(Cl)cc1)NCC(c1cccs1)S(=O)(=O)c1ccc(F)cc1` (stereo not given), the Potency was inconclusive: 14.1 µM [inhibitor, partial curve, poor fit].
In the case of `c1ccc(Cn2nnnc2C(c2cccnc2)N2CCN(C3CCCCC3)CC2)cc1` (stereo not given), the Potency is reported as “inactive”.
For `O=C(c1ccco1)N1CCN(c2nc3c(Cl)cccc3s2)CC1`, the Potency was inconclusive: 15.8 µM [inhibitor, single point].
With `CCN(CC)S(=O)(=O)c1nnc(NC(=O)c2ccc(C(C)C)cc2)s1` the Potency was inconclusive: 12.6 µM [inhibitor, partial curve, poor fit].
For `Cc1cc(C)nc(Nc2n[nH]c(-c3ccccc3Br)n2)n1`, the Potency was “inactive”.
For `Fc1cc(Br)ccc1NC(=S)Nc1ccccc1`, the Potency was inconclusive: 7.08 µM [inhibitor, full curve, poor fit].
With `Cc1cc(CC(C)CC(C)(C)C)n(O)c(=O)c1` (stereo not given) the Potency was active: 5.62 µM.
For `CO/N=C(/c1nonc1N)N1CCN(c2ccc([N+](=O)[O-])cc2)CC1`, the Potency was “inactive”.
With `COc1ccc(S(=O)(=O)Nc2cccc3cccnc23)c([N+](=O)[O-])c1` the Potency was inconclusive: 2.82 µM [inhibitor, full curve, poor fit].
In the case of `CCC[C@@H](CN1CCC[C@H]1CN1C(N)=NC[C@H]1CC(C)C)N1C[C@@H]([C@H](C)CC)N(CCCC2CCCC2)C1=N`, the Potency is reported as “inactive”.
For `CC(C)c1ccc(NC(=O)N2CCc3ccccc3C2)cc1`, the Potency was “inactive”.
In the case of `O=C(NC(Cc1ccccc1)C(=O)OCC(=O)N1CCc2ccccc21)c1ccco1` (stereo not given), the Potency is reported as inconclusive: 15.8 µM [inhibitor, single point].
